The list shows a part of the results.

Results on 14 molecules are retold here after paper PMC12136788.

B1: chr1:169376695:169376796:+|CDS|ENSG00000117475|unk|FALSE|unique (ssRNA)
RNA: GGGAGUUCUACAGUCCGACGAUCUCUUCAGCUAGGGAAAAUGCUCACUGAAAAAGCAAUGGAAGUUAAAGCUGUAAGAAUAUUAGUUCCCAAAGCUGCUAUAACUCAUGAUAUCCCCAACAAAAAUACAAAGGUUAAGUCUCUCAACAGAGGAUUGAGCAUCA
B2: chr11:71804996:71807656:-|three_prime_utr|ENSG00000289716|control|control|control (ssRNA)
RNA: GGGAGUUCUACAGUCCGACGAUCGAGCCCAAGGAUGAAGGGGGCUCCCUCACUCUGUUACUGUGAAGAGGAAGCCUGAGGUGUAGCAGGCCCAGGCCCCAGAAGUAUGGAAAAAAAUGAGGUAGGGAGGGAGGGGACCUCAGGCAACAGAGGAUUGAGCAUCA
B3: chr7:137879121:137879144:-|3pUTR|ENSG00000182158|msi1_unk|FALSE|overlapping (ssRNA)
RNA: GGGAGUUCUACAGUCCGACGAUCUAAUCCCCAACCUACUUUUAGUUUUUUUGUUUUUUUUUUAUGGUUAAAAGUAACUUUUGUAGUUUAAAAAAAUCUUUCCUCUUUCAUAUAAAUAAGAAGUGGAAAUUGCCUUUUUAUUGUCAACAGAGGAUUGAGCAUCA
B4: chr10:92030471:92030572:+|3pUTR|ENSG00000095564|unk|total|mutant (ssRNA)
RNA: GGGAGUUCUACAGUCCGACGAUCUAUUUUUUUAUUAACUAUUUAUUUGCCCGUUCCAUAAACCAGCUCUUUAACACCGCUUACCGUAAUUGAUAUUUUCUCCGAAUAAGUACAGAGCAAUAUAUCAUUAAAGGGCUAUGAAGGCAACAGAGGAUUGAGCAUCA
B5: chr7:101138926:101139078:+|3pUTR|ENSG00000106366|msi1|total|mutant (ssRNA)
RNA: GGGAGUUCUACAGUCCGACGAUCUAUUUUAAAGACCAAUUUAUGGGAGAAUUGCACACAGAUGUGAAAUGAAUGUAAUCUAACCGAAGCCUAAUCAGCCCACCAUGUUCUCCACUGAAAAAUCCUCUUUCUUUGGGGUUUUUCCAACAGAGGAUUGAGCAUCA
B6: chr1:246907611:246907713:-|CDS|ENSG00000153207|unk|FALSE|bound_elsewhere (ssRNA)
RNA: GGGAGUUCUACAGUCCGACGAUCUGAAGUACCACACAUUAGAGAAAGUGUAAUGAGACAAGGGCGCCAUCUGUGUUUCCAGUUAGUAAGUCCAACAGGAACAGCUGUUUCAACUCUUAGUUACAUAAGCAGGACAAAUCAGCUCAACAGAGGAUUGAGCAUCA
B7: chr6:26414640:26414744:+|3pUTR|ENSG00000026950|unk|total|mutant (ssRNA)
RNA: GGGAGUUCUACAGUCCGACGAUCCAGGCAGAGCAAAUACCCCCGAGAUUCUCUGUGAUACCGGAAAUUUGGAUGAAGGGAGCCCGAAGAAAUACAGGGAUUUUUUUUUUUUUUUAAGAUGGAGUCUUACUCUGUUGCCCGGCUCAACAGAGGAUUGAGCAUCA
B8: chr7:139079551:139079652:-|CDS|ENSG00000105939|unk|FALSE|bound_elsewhere (ssRNA)
RNA: GGGAGUUCUACAGUCCGACGAUCAAUGCUGAUGGAGUGGCCACAGAUAUAACUUCUACCAGAUCCUUAAAUUACAAAAGCACUAGCAGCGGUCACAGAGAAAUAUCAUCACCUAGGAUUCAGGAUGCUGGACCUGCUUCCCGACAACAGAGGAUUGAGCAUCA
B9: chr1:162785649:162785750:+|3pUTR|ENSG00000162733|unk|FALSE|unique (ssRNA)
RNA: GGGAGUUCUACAGUCCGACGAUCUGAAUGUUGUUUUUUUGAAUGAACAUAAGAUAGAAACAAAAACUUCUCAUCCAGUUAACUAGAGUGAAUGUAGGGAGAAUUGUUUUGCUUGUAACAUGGAGAGUUUAUUUUCAAGUGAGGCAACAGAGGAUUGAGCAUCA
B10: ENSG00000169762:stop:overlap|stop_codon|ENSG00000169762|stop_codon|NA|stop_codon (ssRNA)
RNA: GGGAGUUCUACAGUCCGACGAUCUCCUCACUUUGCCUUGCUAUGGCUUAAGACCGAAGGGAGGAGCACUUUCACUUCCUUUAUAGAAUGGAAUGUGGUGGCACAGGGACUCCUUGUGGGACAGACGUUUGCUUCAGCCUGCCCCAACAGAGGAUUGAGCAUCA
B11: chr4:169989555:169989656:-|3pUTR|ENSG00000198948|unk|FALSE|unique (ssRNA)
RNA: GGGAGUUCUACAGUCCGACGAUCUUGGACAACUCCCUUCCUCUCUCUGGGAUUUAAUCUUUUUCAUCUGUAAAAUAUGCAGGUAGUACUCGAGGGUCUACAGGAUCCCUUCUAGUUGAAACAUUUAUAGUUCACAGAAAGUUUCAACAGAGGAUUGAGCAUCA
B12: chr7:16791810:16792950:-|three_prime_utr|ENSG00000106541|control|control|control (ssRNA)
RNA: GGGAGUUCUACAGUCCGACGAUCAGCCCUUCUGUCUGUCAGGCCUUGAGACUUGAAACCAGAAGAAGUGUGAGAAGACUGGCUAGUGUGGAAGCAUAGUGAACACACUGAUUAGGUUAUGGUUUAAUGUUACAACAACUAUUUCAACAGAGGAUUGAGCAUCA
B13: chr1:11013840:11013957:+|CDS|ENSG00000120948|unk|FALSE|unique (ssRNA)
RNA: GGGAGUUCUACAGUCCGACGAUCGGCGUGUGGGCUUCGCUACAGGAAUCCAGUGUCUCAGUGUAUGAGAGGUGUCCGGCUGGUAGAAGGAAUUCUGCAUGCCCCAGAUGCUGGCUGGGGAAAUCUGGUGUAUGUUGUCAACUACAACAGAGGAUUGAGCAUCA
B14: chr1:92323927:92324037:+|CDS|ENSG00000122484|unk|total|mutant (ssRNA)
RNA: GGGAGUUCUACAGUCCGACGAUCAGUGCAGAGCAUUUUAAGAGAAAAUUUGCCAAAUCAAACCAAGUGUCCCGGUCAGUGUCCCGUUCAGUGCAGGUGUGUCCUGAAGUUGGAAAGAGAAACUUACUUAAAGUUUUGAAGGAGCAACAGAGGAUUGAGCAUCA

The assay deals with MSI1 full-length (mouse, UniProt Q61474 1-362). Description: nsRBNS (natural sequence RNA bind-n-seq); RBNS binding buffer (assumed for nsRBNS): 25 mM Tris pH 7.5, 150 mM KCl, 3 mM MgCl2, 0.01% Triton X-100, 500 ug/ml BSA, 20 U/ml SUPERase-In, 4 C; UNK is unkempt and MSI1 is Musashi-1; names of the RNAs are library labels; protein concentration not given here; high values mean tight binding.
UniProt Q61474, sequence (Q61474 whole entry): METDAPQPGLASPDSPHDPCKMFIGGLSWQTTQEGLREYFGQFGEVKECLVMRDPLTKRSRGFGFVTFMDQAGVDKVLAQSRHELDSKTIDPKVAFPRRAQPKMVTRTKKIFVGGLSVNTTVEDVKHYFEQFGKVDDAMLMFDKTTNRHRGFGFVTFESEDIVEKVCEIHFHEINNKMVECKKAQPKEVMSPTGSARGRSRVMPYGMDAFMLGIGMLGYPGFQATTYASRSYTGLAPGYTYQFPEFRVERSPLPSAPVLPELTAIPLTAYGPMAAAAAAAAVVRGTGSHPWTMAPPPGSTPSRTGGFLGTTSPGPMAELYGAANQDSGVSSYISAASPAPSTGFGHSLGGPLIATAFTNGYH
Turning to B1, the binding signal is 0.662 enrichment R.

In turn, B2 yielded a binding signal of 0.777 enrichment R.

With B3, the binding signal is 12 enrichment R.

In the case of B4, the binding signal came to 27.9 enrichment R.

Molecule B5 yielded a binding signal of 0.403 enrichment R.

With B6, the binding signal came out at 1.54 enrichment R.

B7: the binding signal stood at 0.532 enrichment R.

The molecule B8 registered a binding signal of 1.62 enrichment R.

With B9, the binding signal is 2.65 enrichment R.

Molecule B10 yielded a binding signal of 0.321 enrichment R.

The molecule B11 displayed a binding signal of 0.869 enrichment R.

Take B12: the binding signal was 1.19 enrichment R.

Regarding B13, the binding signal amounted to 0.5 enrichment R.

In turn, B14 gave a binding signal of 0.422 enrichment R.
